Measured values from PubChem BioAssay AID485294 (National Center for Advancing Translational Sciences (NCATS), 2010).
Hit rate of the full screen: of about 370,000 compounds, about 150 (0.041%) were called active. Inconclusive means that the source gave no clear call. Such entries were picked first, then a sample of the others. Calls follow the shape of the dose curve; as a rule, active = well fitted inhibition curve with a large enough effect; inconclusive = small, poorly fitted or top-dose-only effect; inactive = flat fitted curve, though single readings scatter. Potencies of inconclusive entries are left out as doubtful fits.

The compounds below were run against Beta-lactamase (Escherichia coli (strain K12)) (UniProt P00811) (assay: qHTS Inhibitors of AmpC Beta-Lactamase (assay with detergent)). Conditions: AmpC hydrolysis of nitrocefin, absorbance 480 nm, 0.01% Triton; activity change, negative = inhibition: at 114 µM (top of the series).
Sequence of UniProt P00811 (P00811 whole entry, looked up): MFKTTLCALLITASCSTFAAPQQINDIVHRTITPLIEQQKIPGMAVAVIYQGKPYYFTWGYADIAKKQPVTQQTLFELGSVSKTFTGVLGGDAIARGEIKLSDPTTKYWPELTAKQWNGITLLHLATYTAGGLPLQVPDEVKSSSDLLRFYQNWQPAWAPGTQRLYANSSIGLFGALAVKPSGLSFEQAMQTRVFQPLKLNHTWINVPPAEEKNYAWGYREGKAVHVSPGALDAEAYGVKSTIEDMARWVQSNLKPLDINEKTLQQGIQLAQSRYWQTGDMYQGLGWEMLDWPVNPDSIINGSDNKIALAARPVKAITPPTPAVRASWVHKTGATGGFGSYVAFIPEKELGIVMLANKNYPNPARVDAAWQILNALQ
Method in brief: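 20 mM phosphate pH 7.0 + 0.01% (detergent screen) or 0.0001% Triton X-100; 5.3 nM AmpC reagent; cpd preinc 15 min RT; nitrocefin (800 uM stock) to start; A480 q20 s × 4 min; Activity was normalised to no-enzyme and no-compound control wells.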
Also: nearly all actives have a fitted effect of over 25% in size.
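For activity change, negative = inhibition in this document: 0% = no-compound wells and -100% = no-enzyme wells.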
Potency is read from the fitted curve at half-maximal effect; tags tell the direction and shape of the fitted curve.

| SMILES | Potency | activity change, negative = inhibition |
| --- | --- | --- |
| COc1ccccc1Nc1nc(C)cc(=O)[nH]1 | inconclusive [inhibitor, full curve, poor fit] |  |
| O=C1NC(c2ccccc2)(C(F)(F)F)C(=O)N1Cc1cccnc1 (stereo not drawn) | inconclusive [inhibitor, full curve, poor fit] |  |
| Nc1cc(=O)[nH]c(SCC(=O)N2N=C(c3ccc(Cl)cc3)CC2c2ccco2)n1 (stereo not drawn) |  | inactive: 5.47% |
| COc1ccc(/C=N/OCC(=O)NC(c2ccccc2)c2ccccc2)c(OC)c1 | inconclusive [inhibitor, full curve] |  |
| COC(=O)C1=C(C(=O)OC)[C@@H]2N(Cc3ccccc3)c3ccccc3[C@@]23C[C@@H](C(=O)OC)N(C(=O)c2ccc(Br)cc2)C3=N1 |  | inactive: -7.59% |
| N/C(Cc1ccccc1Sc1ccccc1)=N\O | inconclusive [inhibitor, full curve, poor fit] |  |
| COc1ccc2[nH]c(S(=O)Cc3ncc(C)c(OC)c3C)nc2c1 (stereo not drawn) |  | inactive: -28.2% |
| O=C(COC(=O)c1ccccc1Nc1ccccc1)NCc1ccco1 |  | inactive: 0.448% |
| CCOc1cc(CN2CCN(c3cccc(C(F)(F)F)c3)CC2)ccc1O |  | inactive: 1.29% |
| CC1(c2cc(C(F)(F)F)n3nc(C(=O)O)cc3n2)CC1 | inconclusive [inhibitor, partial curve, poor fit] |  |
| Cc1c(C(=O)N2CCCC2)sc(NC(=O)c2ccc(Cl)cc2)c1C#N | inconclusive [inhibitor, full curve, poor fit] |  |
| O=C(NC(=S)NCC1CCCO1)c1ccccc1Br (stereo not drawn) | inconclusive [inhibitor, full curve, poor fit] |  |
| O=C(CN1C(=O)COc2ccc(S(=O)(=O)N3CCCC3)cc21)NCCc1ccc(Cl)cc1 |  | inactive: 3.56% |
| Cc1cc(=O)oc2c3c(cc(OCC(=O)NC(Cc4ccc(Cl)cc4)C(=O)O)c12)OC(C)(C)CC3 (stereo not drawn) | inconclusive [inhibitor, full curve, poor fit] |  |
| Cc1cccc(C(=O)N2CCN(c3ncnc4c3cnn4-c3ccccc3)CC2)c1 | inconclusive [inhibitor, partial curve, poor fit] |  |
| C=CCC1Cc2c(Br)cccc2C(CC=C)N1 (stereo not drawn) | inconclusive [inhibitor, full curve] |  |
| CCN1CCN(c2ccc(S(=O)(=O)N3CCCCC3)cc2NC(=O)CC(C)c2ccccc2)CC1 (stereo not drawn) | inconclusive [inhibitor, full curve] |  |
| Cc1cc(C)cc(NC(=O)CSc2nnc(-c3ccncc3)o2)c1 | inconclusive [inhibitor, full curve, poor fit] |  |
